Measured values taken from ChEMBL document CHEMBL1157539, “Thousands of chemical starting points for antimalarial lead identification” (Nature, 2010).
In all, about 13,000 compounds were measured (“IFI”: median about 4, highest 2% from about 17 on). The list shows a part of the results.

Experiment: GSK_TCMDC: Inhibition Frequency Index (IFI). The number of non-kinase HTS assays where a compound showed > 50 % inhibition, expressed as a percentage of the number of such assays in which the compound was tested (-0 is zero)
Format: functional

Point of comparison: `O=c1cc(NCCCNCc2ccc(Cl)c(Cl)c2)[nH]c2cc(Cl)ccc12`, IFI 5.41%. Against it:
- CC1(C)NC(N)=NC(=N)N1OCOc1ccc(Cl)cc1 — lower, 1.44%
- CCCc1cn2c3c(cc(C(=O)N[C@@H](Cc4ccccc4)[C@H](O)CNC4CCOCC4)cc13)N(CC)S(=O)(=O)CC2 — lower, 4.76%
- CC(C)(C)NCCN(Cc1ccc(-c2ccc(C(F)(F)F)cc2)cc1)C(=O)Cn1c(SCc2ccc(F)cc2)nc(=O)c2c1CCC2 — higher, 11.6%
- COc1ccc(C2CC(=O)C3=C(C2)NC(C)=C(C(=O)OC2CCCC2)C3c2cccc(O)c2)cc1OC (configuration not stated) — lower, 3.27%
- O=C(Nc1ccc(C(F)(F)F)cc1)N[C@H]1CCN(CCCCCNC(=O)C2CC2c2ccc(Cl)c(Cl)c2)C1 (some centres not stated) — higher, 16.8%
- COc1ccc2nccc(N(C)CC3(O)CCN(CC(O)c4ccc5c(c4)NC(=O)CS5)CC3)c2n1 (configuration not stated) — lower, 1.46%
- CC1CCN(Cc2ccc(NC(=O)c3cc4ccc5cccnc5c4[nH]3)cc2)CC1 — higher, 7.69%
- Cc1ccc(NC(=O)c2ccc(CN3CCCN(CCC(C)C)CC3)cc2)cc1F — higher, 7.2%
- Cc1cccc2nc(-c3ccc(-c4ccc(CNCc5cnn(-c6ccccc6)n5)cc4)cc3)[nH]c12 — lower, 3.28%
- CCOc1cc(Br)c(C(C)NC(=O)c2cccc(OC)c2)cc1OCC (configuration not stated) — lower, 2.07%
- c1cc(-c2nc3ccccc3[nH]2)nc(-c2nc3ccccc3[nH]2)c1 — lower, 0.75%
- COc1ccc(-c2cncc3ccc(C(=O)NCc4ccncc4)nc23)cc1 — higher, 6.45%
- COc1cccc(-c2cccc(-c3ccc(NC(=O)c4ccc([N+](=O)[O-])o4)cc3)n2)c1 — higher, 9.52%
- Cc1[nH]c(C)c(-c2ccc(Oc3ccc(C(F)(F)F)cc3)cc2)c(=O)c1Br — lower, 2.27%
- FC(F)(F)c1ccc2[nH]c(-c3ccc(-c4cccc(CNCc5ccccc5)c4)cc3)nc2c1 — higher, 12.5%
- CC(C)C(=O)Nc1c(F)cc(F)cc1CCc1ccc(O)cc1 — lower, -0%
- CCC[C@@H]([C@@H](CC1CCCCC1)C(=O)N[C@H](C(=O)Nc1nccs1)C(C)(C)SCCNC(=O)OCc1ccccn1)N(O)C=O — higher, 5.8%
- Cc1ccc(-c2cc3nc4c(c(NCCCn5ccnc5)n3n2)CCC4)cc1 — lower, 2.59%
- COc1cccc(CNC(=O)c2cnc(N3CCN(c4ccncc4)CC3)c(Cl)c2)c1 — lower, 2.38%
- CC(C)CNCc1cccc(-c2cccc(CN(CCCN3CCN(C)CC3)C(=O)/C=C/c3ccccc3)c2)c1 — higher, 5.97%
- O=C(CCN1C(=O)c2ccccc2C1=O)N1CCN(CC=Cc2ccccc2)CC1 — lower, 0.7%
- CCN1CCN(c2cc(C)c3cc(NC(=O)c4ccc(Br)o4)ccc3n2)CC1 — lower, 1.48%
- COc1ccc(-c2c(C(F)(F)F)nn(C)c2NC(=O)Nc2ccc(F)cc2F)cc1 — lower, 3.42%
- O=S(=O)(NCCN1CCCC1)c1cccc(-c2cccc(CNCc3ccccc3)c2)c1 — higher, 10.9%
- O=C(NC1CCC(N2CCC(Cc3ccc(F)cc3)CC2)CC1)c1cc2ccccc2[nH]1 (configuration not stated) — higher, 14.7%
- COc1ccc(-c2ccc(NC(=O)c3ccc(C#N)cc3)cc2)cc1CN1CCCC1 — higher, 5.88%
- O=S1(=O)NCc2ccc(Nc3nccc(Nc4ccc5c(cnn5Cc5ccccc5)c4)n3)cc21 — lower, 4.35%
- CN1CCCN(Cc2cccc(-c3ccc(CNC(=O)c4cccc(Cl)c4)c(F)c3)c2)CC1 — higher, 9.33%
- Oc1cc(NCCCNC2CCc3c(Cl)cc(Cl)cc32)nc2ccccc12 (configuration not stated) — higher, 6.62%
- O=C(Nc1ccccc1)Nc1cccc(-c2cc(CNCCc3ccccc3)sc2-c2ccncc2)c1 — lower, 4.23%
- CC(O)C1CCCCN1C(=O)c1cccc(-c2cccc(-c3nc4cc(F)ccc4[nH]3)c2)c1 (configuration not stated) — lower, 3.81%
- CC(C)C1C(O)=C(c2ccc3ccccc3c2)C(=O)N1Cc1cccc(F)c1 (configuration not stated) — lower, 0.68%
- O=C(NC1CC1)c1ccc(N2CCCCN2CCc2ccccc2)c(C(F)(F)F)c1 — lower, 4.32%
- CCOc1ccc(-c2nonc2NC(=O)c2ccc(OC)cc2)cc1OCC — lower, -0%
- COc1cccc(C(=O)N2CCN(Cc3cccc(NC(=O)c4cccs4)c3)CC2)c1 — lower, 4.62%
- O=C(/C=C/c1ccc(Cl)c(Cl)c1)NCCCCCN1CCC(NC(=O)Nc2cc(Cl)cc(Cl)c2)CC1 — higher, 11.8%
- COc1cc2nc(NCCc3ccccc3)nc(NC(C)c3ccccc3)c2cc1OC (configuration not stated) — higher, 11.4%
- Cc1ccccc1NC(=O)C1CSCN1C(=O)OCc1ccccc1 (configuration not stated) — lower, 1.49%
- CS(=O)(=O)c1ccc(CNCc2ccc(-c3cccc(-c4nc5cc(C(F)(F)F)ccc5[nH]4)c3)cc2)cc1 — higher, 8.74%
- CC(C)N(C(=O)CSc1nc2cc(Cl)ccc2c(=O)n1Cc1ccccc1)C(C)C — lower, 1.41%
- CC(COc1ccc2c(c1)OC(C)(C)CC2c1ccccc1)NCC(O)c1cccc(Cl)c1 (configuration not stated) — higher, 5.59%
- O=C(Nc1ccc(F)c(F)c1)c1ccc(CN2CCCN(Cc3cccc(O)c3)CC2)cc1 — higher, 8.66%
- CCc1ccc(C2CCN(CCCCNC(=O)c3ccc(NC(=O)c4ccc(Cl)cc4)cc3)CC2)cc1 — lower, 4.51%
- COc1ccc(CNC2Cc3ccccc3C2)cc1-c1ccc(S(=O)(=O)NCCN2CCCC2)cc1 — higher, 7.77%
- COc1ccc(-c2cc(-c3nc4cc(CN)ccc4[nH]3)c(=O)n(C)c2)cc1OC — lower, 0%
- COc1ccc2[nH]c(C)cc(=NN=Cc3cc(C)ccc3O)c2c1 — higher, 10.2%
- Cc1ccc(-c2ccc3c(c2)C=C(C(=O)NC2CCN(CCNC(=O)c4cccc(C(F)(F)F)c4)CC2)CCC3)cc1 — lower, 2.7%
- N#Cc1c(N2CCN(c3ccc(F)cc3)CC2)nc(N)c2c(N)nc3c(c12)CC(=O)N3C1CC1 — lower, 3.2%
- O=C(NC1CC1)c1cnc(N2CCC(COc3cccc(F)c3)CC2)c(Cl)c1 — higher, 6.12%
- CCn1c(-c2nonc2N)nc2c(-c3cccc(NC(=O)Nc4ccc(C(F)(F)F)cc4)c3)ncc(OCCCN)c21 — higher, 19.1%
- COc1ccc(-c2cc3ncnc(N4CCN(CCN5CCCC5)CC4)c3s2)cc1 — lower, 3.45%
- O=c1n(CC2CCCCC2)c2cc(Cl)cc(OCCNc3ccncc3)c2n1CC1CCCCC1 — higher, 6.99%
- CCCCN(C)CC#Cc1ccc2[nH]c(C)c(Cl)c(=O)c2c1 — lower, 1.8%
- O=C(Nc1nc2cc(S(=O)(=O)NCCCN3CCOCC3)ccc2n1CCCn1ccnc1)c1ccc(Cl)cc1 — lower, 2.14%
- COc1ccc(OCCCN2CCCCC2)cc1S(=O)(=O)c1ccc(OCc2ccc(C(F)(F)F)cc2)cc1 — higher, 13.2%
- O=C(c1c(-c2[nH]c3ccccc3c2C(=O)C(F)(F)F)[nH]c2ccccc12)C(F)(F)F — lower, 3.55%
- COc1ccc(C(=O)N2CCC3(CC2)C(=O)N(CC(=O)NCC2CCCCC2)CN3c2ccccc2)c(OC)c1 — lower, 3.33%
- CN(C)CCN(C)Cc1ccc(-c2ccc(NC(=O)c3cccc(Cl)c3)cc2)cc1 — higher, 10.1%
- COCc1nc(N)nc(N)c1-c1ccc(Cl)c(Cl)c1 — lower, 0.75%
- Cc1cc(=NN=Cc2cccc(Cl)c2)c2ccccc2[nH]1 — lower, 3.42%
- CC(C)CNCc1ccc(-c2cccc(CNC3CCN(Cc4ccccc4)CC3)c2)cc1 — lower, 3.62%
- COc1cc(F)c2ncc(Cl)c(CCN3CCC(NCc4ccc5c(c4)NC(=O)CO5)CC3)c2c1 — lower, 5.22%
- CCOC(=O)c1ccc(NC(=O)N[C@H]2CCN(CCCCCNC(=O)/C=C/c3ccc(Cl)c(Cl)c3)C2)cc1 — higher, 7.91%
- O=S(=O)(c1ccc2ccccc2c1)N1CCCN(Cc2ccc(OCCCN3CCCCC3)cc2)CC1 — higher, 15.9%
- CCNc1cc(C(=O)N[C@@H](Cc2ccccc2)[C@H](O)CNCCC(C)c2ccccc2)cc(N2CCCC2=O)c1 (some centres not stated) — lower, 1.45%
- CC(C)CCNCc1ccc(OCc2cccc(COc3ccc(CNCCC(C)C)cc3I)c2)c(I)c1 — higher, 10.9%
- COc1cccc(CN2CCC3(CC2)CN(C(=O)Nc2ccc(Cl)c(Cl)c2)C3)c1 — higher, 6.35%
- O=C(/C=C/c1ccc(Cl)c(Cl)c1)NCCCCCCN1CCCN(C(=O)Nc2ccc(Cl)c(Cl)c2)CC1 — higher, 9.76%
- COc1ccc(NC(=O)c2ccc(-c3ccc(-c4cccnc4)cc3)c(C)c2)cc1OCCN(C)C — higher, 6.9%
- O=C(Nc1ccccc1F)NC1CCN(c2ccnc(Nc3ccc(F)cc3)n2)CC1 — lower, 1.52%
- CCOC(=O)[C@H](Cc1cccc2ccccc12)NC(=O)[C@H](CCC(=O)OC(C)(C)C)NC(=O)c1ccc(N(C)Cc2cnc3nc(N)nc(N)c3n2)cc1 — lower, 2.86%
- CCCCOc1ccc(C(=O)C(CCC(CNC(C)(C)C)C(=O)c2ccc(OCCCC)cc2)CNC(C)(C)C)cc1 (configuration not stated) — higher, 25.4%
- O=C(Nc1ccc(Cl)cc1F)N[C@H]1CCN(CCCCCNC(=O)C2CC2c2ccc(Cl)c(Cl)c2)C1 (some centres not stated) — higher, 14.2%
- COc1ccc(CNc2ccnc(-n3cnc4cc(C)c(C)cc43)n2)cc1Cl — lower, 0.78%
- O=C(NCCCN1CCC(N2CCCCC2)CC1)c1ccc2nc(N3CCCCC3)sc2c1 — lower, 2.91%
- CN1CCN(c2nsc3ccc(-c4ccc(OCCN5CCCC5)cc4)cc23)CC1 — higher, 12.2%
- Cc1cccc(Nc2nccc(Nc3cccc(C(=O)NCCN4CCOCC4)c3)n2)c1 — lower, -0%
- COC(=O)C(Cc1ccccc1)C(CSCc1ccc(OC)cc1)C(=O)N[C@@H](C(=O)OC(C)(C)C)c1ccc(C(C)(C)C)cc1 (some centres not stated) — lower, -0%
- O=C(/C=C/c1cccc(Br)c1)NCCCCCN1CCC(c2c[nH]c3ccccc23)CC1 — higher, 7.75%
- O=c1cc(NCCCNC2CCOc3c(Cl)cc(Cl)cc32)[nH]c2ccccc12 (configuration not stated) — higher, 7.64%
- CN(C(=O)Cc1ccc(Cl)c(Cl)c1)C1CCN(CCCCCNC(=O)/C=C/c2ccc(Cl)c(Cl)c2)CC1 — higher, 9.35%
- CC(C)CCN1CCC(Oc2cccc(NC(=O)c3ccc(C(F)(F)F)cc3)c2)CC1 — higher, 6.58%
- Cc1ccc(-c2cc(C(=O)Nc3ccc(S(=O)(=O)N4CCCCC4C)cc3)n[nH]2)c(O)c1 (configuration not stated) — lower, 1.75%
- COc1ccc(CNc2nc(NCCc3ccccc3)c3cc(OC)c(OC)cc3n2)cc1OC — higher, 5.84%
- CCNC(=O)Nc1ccc(-c2cnc(N)c(-c3nc4ccc(OC)cc4[nH]3)c2)cc1 — higher, 10.5%
- O=C(NC1CCN(c2ccnc3ccccc23)C1)c1cccc(C(F)(F)F)c1 (configuration not stated) — lower, -0%
